The text below walks through data of article PMC9911399, “Two distinct binding modes provide the RNA-binding protein RbFox with extraordinary sequence specificity”.

Changes are numbered by the printed parent chain; changes in the protein carry UniProt numbers. Some of the results follow.

T1: RBFOX1 RRM (Homo sapiens, UniProt Q9NWB1 109-208)
T1 sequence: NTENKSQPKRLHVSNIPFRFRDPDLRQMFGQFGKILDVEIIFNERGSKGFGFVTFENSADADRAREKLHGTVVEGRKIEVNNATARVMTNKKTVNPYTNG

B1: CAACUAU (DNA:RNA)
RNA: GGGAGACCGGAAUUCAGAUUGUCCCAACUAUUUAAAUCCCGUCGUAGCCACCA
DNA 1: CAATCTGAATTCCGGTCTCCC
DNA 2: TGGTGGCTACGACGGGATT
B2: CCGACAU (DNA:RNA)
RNA: B1 RNA with A26C, A27G, C28A, U29C
DNA 1: CAATCTGAATTCCGGTCTCCC
DNA 2: TGGTGGCTACGACGGGATT
B3: GUUCACC (DNA:RNA)
RNA: B1 RNA with C25G, A26U, A27U, U29A, A30C, U31C
DNA 1: CAATCTGAATTCCGGTCTCCC
DNA 2: TGGTGGCTACGACGGGATT
B4: ACCAACA (DNA:RNA)
RNA: GGGAGACCGGAAUUCAGAUUGUCCACCAACAUUAAAUCCCGUCGUAGCCACCA
DNA 1: CAATCTGAATTCCGGTCTCCC
DNA 2: TGGTGGCTACGACGGGATT
B5: UACGCCU (DNA:RNA)
RNA: B4 RNA with A25U, C26A, A28G, A29C, A31U
DNA 1: CAATCTGAATTCCGGTCTCCC
DNA 2: TGGTGGCTACGACGGGATT
B6: UUCGCCC (DNA:RNA)
RNA: B4 RNA with A25U, C26U, A28G, A29C, A31C
DNA 1: CAATCTGAATTCCGGTCTCCC
DNA 2: TGGTGGCTACGACGGGATT
B7: GGAACUA (DNA:RNA)
RNA: B4 RNA with A25G, C26G, C27A, A29C, C30U
DNA 1: CAATCTGAATTCCGGTCTCCC
DNA 2: TGGTGGCTACGACGGGATT
B8: GAUCGCC (DNA:RNA)
RNA: B1 RNA with C25G, A27U, U29G, A30C, U31C
DNA 1: CAATCTGAATTCCGGTCTCCC
DNA 2: TGGTGGCTACGACGGGATT
B9: CAAGGAU (DNA:RNA)
RNA: B1 RNA with C28G, U29G
DNA 1: CAATCTGAATTCCGGTCTCCC
DNA 2: TGGTGGCTACGACGGGATT
B10: CCGGCGC (DNA:RNA)
RNA: B4 RNA with A25C, C27G, A28G, A29C, C30G, A31C
DNA 1: CAATCTGAATTCCGGTCTCCC
DNA 2: TGGTGGCTACGACGGGATT
B11: UUGAGAG (DNA:RNA)
RNA: B4 RNA with A25U, C26U, C27G, A29G, C30A, A31G
DNA 1: CAATCTGAATTCCGGTCTCCC
DNA 2: TGGTGGCTACGACGGGATT
B12: UCCGCAC (DNA:RNA)
RNA: B4 RNA with A25U, A28G, A29C, C30A, A31C
DNA 1: CAATCTGAATTCCGGTCTCCC
DNA 2: TGGTGGCTACGACGGGATT
B13: CGAAUCC (DNA:RNA)
RNA: B1 RNA with A26G, C28A, A30C, U31C
DNA 1: CAATCTGAATTCCGGTCTCCC
DNA 2: TGGTGGCTACGACGGGATT
B14: CUAUUGC (DNA:RNA)
RNA: B1 RNA with A26U, C28U, A30G, U31C
DNA 1: CAATCTGAATTCCGGTCTCCC
DNA 2: TGGTGGCTACGACGGGATT
B15: AGAGGUC (DNA:RNA)
RNA: B4 RNA with C26G, C27A, A28G, A29G, C30U, A31C
DNA 1: CAATCTGAATTCCGGTCTCCC
DNA 2: TGGTGGCTACGACGGGATT
B16: AGGUGGC (DNA:RNA)
RNA: B4 RNA with C26G, C27G, A28U, A29G, C30G, A31C
DNA 1: CAATCTGAATTCCGGTCTCCC
DNA 2: TGGTGGCTACGACGGGATT
B17: GGAUAAA (DNA:RNA)
RNA: B4 RNA with A25G, C26G, C27A, A28U, C30A
DNA 1: CAATCTGAATTCCGGTCTCCC
DNA 2: TGGTGGCTACGACGGGATT
B18: GAGGCAC (DNA:RNA)
RNA: B1 RNA with C25G, A27G, C28G, U29C, U31C
DNA 1: CAATCTGAATTCCGGTCTCCC
DNA 2: TGGTGGCTACGACGGGATT
B19: AGAAUUG (DNA:RNA)
RNA: B4 RNA with C26G, C27A, A29U, C30U, A31G
DNA 1: CAATCTGAATTCCGGTCTCCC
DNA 2: TGGTGGCTACGACGGGATT
B20: UAUUCUC (DNA:RNA)
RNA: B1 RNA with C25U, A27U, C28U, U29C, A30U, U31C
DNA 1: CAATCTGAATTCCGGTCTCCC
DNA 2: TGGTGGCTACGACGGGATT

The test deals with T1, RBFOX1 RRM. The experiment in a line: EMSA; HiTS-Eq, 1 nM pool, 10 min; buffer printed only for the single-RNA assays: 10 mM Tris pH 7.5, 150 mM NaCl, 3.4 mM EDTA, 0.001% NP-40, 30 C. Conditions: tags: His6 N-terminal (pET28a); label: 5' 32P. The essentials: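 Relative association constants, normalised to the cognate motif, were derived by comparing read counts of each RNA species with those of the control reaction. The RNA sequenced was the free fraction, separated by 8% native PAGE after a 10 min equilibration in 50 µL of 1 nM 5′-radiolabelled RNA (7 randomized nucleotides) with increasing concentrations of purified wild-type or mutant RbFox RRM.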
Background: A gel shift assay detects complexes by their altered migration in electrophoresis.
Take B1: the binding signal is 0.000487 KA relative to UGCAUGU.

Turning to B2, the binding signal was 0.00509 KA relative to UGCAUGU.

Regarding B3, the binding signal was 0.00812 KA relative to UGCAUGU.

For B4, the binding signal is 0.000142 KA relative to UGCAUGU.

For B5, the binding signal is 0.00588 KA relative to UGCAUGU.

With B6, the binding signal was 0.00948 KA relative to UGCAUGU.

For the molecule B7, the binding signal was 0.00705 KA relative to UGCAUGU.

In the case of B8, the binding signal is 0.0146 KA relative to UGCAUGU.

Turning to B9, the binding signal was 0.00611 KA relative to UGCAUGU.

For the molecule B10, the binding signal was 0.0147 KA relative to UGCAUGU.

With B11, the binding signal was 0.0165 KA relative to UGCAUGU.

With B12, the binding signal is 0.0164 KA relative to UGCAUGU.

As for B13, the binding signal was 0.00689 KA relative to UGCAUGU.

Regarding B14, the binding signal was 0.0111 KA relative to UGCAUGU.

In the case of B15, the binding signal was 0.012 KA relative to UGCAUGU.

Take B16: the binding signal is 0.0219 KA relative to UGCAUGU.

B17: the binding signal was 0.00928 KA relative to UGCAUGU.

For the molecule B18, the binding signal is 0.02 KA relative to UGCAUGU.

Turning to B19, the binding signal was 0.00805 KA relative to UGCAUGU.

As for B20, the binding signal was 0.0117 KA relative to UGCAUGU.
